In US20230122503A1, “ANTI-PSMA RADIOCONJUGATES AND USES THEREOF” (Janssen Biotech, Inc., priority 2021, published 2023):

Molecular target: T1, recombinant human ECD (human PSMA) (Homo sapiens, UniProt Q04609)
T1 construct: made in house
Assay: SPR (BIACORE 8K) binding of anti-PSMA antibodies to recombinant human PSMA ECD
Conditions: antibody captured on anti-Fc C1 chip, PSMA antigen titrated, 1:1 Langmuir model
Procedure: The binding affinity of purified anti-PSMA antibodies to the recombinant human ECD was determined by surface plasmon resonance (SPR) using a BIACORE 8K instrument. The antibodies were captured on a goat anti-Fc antibody-modified C1 chip and titrated with 3-fold serial dilutions of PSMA antigen spanning concentrations of 1 nM to 11.1 nM. The association and dissociation were monitored for 3 and 15 minutes, respectively, using a flow rate of 50 μL/min. Raw binding data was referenced by subtracting the analyte binding signals from blanks and analyzed using a 1:1 Langmuir binding model using the Biacore Insight evaluation software to obtain the kinetics which were used to calculate the binding affinity.

T1 sequence (Q04609 with tags, fused parts or gaps): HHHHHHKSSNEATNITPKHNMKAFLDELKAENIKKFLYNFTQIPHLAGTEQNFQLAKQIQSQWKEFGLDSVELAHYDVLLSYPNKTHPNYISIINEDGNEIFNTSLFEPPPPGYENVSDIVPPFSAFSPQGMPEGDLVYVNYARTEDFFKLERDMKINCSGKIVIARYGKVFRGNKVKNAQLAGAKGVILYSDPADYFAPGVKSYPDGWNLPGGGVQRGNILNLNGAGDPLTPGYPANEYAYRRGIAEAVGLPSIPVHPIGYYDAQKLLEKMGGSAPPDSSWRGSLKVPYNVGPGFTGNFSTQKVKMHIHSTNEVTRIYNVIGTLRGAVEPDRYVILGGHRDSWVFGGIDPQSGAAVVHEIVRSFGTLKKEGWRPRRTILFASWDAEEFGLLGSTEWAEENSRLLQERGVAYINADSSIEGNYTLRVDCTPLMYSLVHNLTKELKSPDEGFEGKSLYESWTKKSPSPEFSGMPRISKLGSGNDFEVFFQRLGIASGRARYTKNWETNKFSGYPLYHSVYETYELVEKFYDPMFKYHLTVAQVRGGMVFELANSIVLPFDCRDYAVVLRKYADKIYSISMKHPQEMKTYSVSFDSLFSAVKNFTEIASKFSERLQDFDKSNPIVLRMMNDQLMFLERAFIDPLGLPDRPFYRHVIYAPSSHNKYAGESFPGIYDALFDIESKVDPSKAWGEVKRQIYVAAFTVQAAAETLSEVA

B1: PSMB1157 (antibody)
heavy: EVQLVESGGGVVQPGRSLRLSCAASVRTFSGYGMHWVRQVPGKGLEWVAVISYDGSNRYYADSVKGRFTISRDNSKNTLYLQMNSLRTEDTAVYYCARDGNWGSLDLYFDLWGRGTLVTVSS[human IgG1 constant region not given here]
light: QSVLTQPPSVSGAPGQRVTISCTGSSSNIGADYDVHWYQQLPGTAPKLLIYVNNNRPSGVPDRFSGSRSGTSASLAITGLQADDEADYYCQSYDNTLSGVVFGGGTKLTVLGQPKAAPSVTLFPPSSEELQANKATLVCLISDFYPGAVTVAWKADSSPVKAGVETTTPSKQSNNKYAASSYLSLTPEQWKSHRSYSCQVTHEGSTVEKTVAPTECS
  Koff: 0.000274 s⁻¹
  Kon: 194000 M⁻¹ s⁻¹
